“And” between values parts separate entries of the source, which are not always exact repeats. Equal entries are not always repeated. The whole screen tested about 360,000 compounds, of which about 25,000 (6.9%) were called active. This list was built around the results that the source calls inconclusive (neither active nor inactive); the mix of calls is not that of the screen. Calls come from the whole dose curve; as a rule, active = well fitted inhibition curve with a large enough effect; inconclusive = small, poorly fitted or top-dose-only effect; inactive = flat fitted curve, though single readings scatter. A potency beside an inconclusive call is a rough fit, not a confirmed value.
These compounds were tested against Luciferin 4-monooxygenase (Photinus pyralis) (UniProt P08659) (assay: qHTS profiling assay for firefly luciferase inhibitor/activator using purifed enzyme and Km concentrations of substrates (counterscreen for miR-21 project)). Details: purified FLuc, luminescence inhibition; series mostly up to 57.5 µM; activity change, negative = inhibition: at the top concentration.
Sequence of UniProt P08659 (P08659 whole entry, looked up): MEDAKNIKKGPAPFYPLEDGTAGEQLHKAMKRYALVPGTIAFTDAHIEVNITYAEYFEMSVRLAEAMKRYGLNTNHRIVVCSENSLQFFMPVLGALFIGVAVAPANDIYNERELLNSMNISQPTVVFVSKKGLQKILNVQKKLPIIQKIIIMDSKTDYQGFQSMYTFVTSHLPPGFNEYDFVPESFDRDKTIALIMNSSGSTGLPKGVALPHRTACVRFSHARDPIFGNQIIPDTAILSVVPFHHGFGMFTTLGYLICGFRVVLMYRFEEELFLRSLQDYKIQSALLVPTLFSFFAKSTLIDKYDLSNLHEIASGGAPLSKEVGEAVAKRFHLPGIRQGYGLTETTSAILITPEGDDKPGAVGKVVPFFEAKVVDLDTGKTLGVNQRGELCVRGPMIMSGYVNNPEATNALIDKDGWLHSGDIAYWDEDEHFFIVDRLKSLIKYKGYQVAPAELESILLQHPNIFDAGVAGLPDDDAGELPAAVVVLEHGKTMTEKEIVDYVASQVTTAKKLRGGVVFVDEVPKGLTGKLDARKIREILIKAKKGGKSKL
How it was run: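 Purified P. pyralis luciferase (10nM final) with 10uM D-luciferin and 10uM ATP (Km levels) in 50mM Tris acetate pH 7.5, 10mM Mg acetate, 0.01% Tween-20, 0.05% BSA; qHTS 6-point titration, ~60 µM downward; luminescence read.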
In the case of `CSc1cccc(NC(=O)C2CCN(c3ncnc4c3nc3n4CCCCC3)CC2)c1`, the Potency was inconclusive: 16.9 µM [inhibitor, partial curve, poor fit].
For `O=C(NC1CCN(c2ncccn2)CC1)c1ccccc1F`, the “activity change, negative = inhibition” value was inactive: 0.816%.
`CCOC(=O)c1ccc2c(c1)N(CC(=O)Nc1ccc(C)cc1C)C(=O)c1ccccc1S2` was tested, and the “activity change, negative = inhibition” value was inactive: 4.56%.
In the case of `COc1ccc(OCC(O)CN2C(=O)c3ccccc3C2=O)cc1` (stereo not drawn), the Potency was inconclusive: 37.9 µM [inhibitor, single point].
`Cc1c(C)n(C)c2ccc(C(=O)NCc3cccs3)cc12` was tested, and the Potency was inconclusive: 26.9 µM [inhibitor, single point].
`CC(=O)NC1C(=O)N(CCN2CCOCC2)c2ccc(Br)cc21` (stereo not drawn) was tested, and the Potency was inconclusive: 37.9 µM [inhibitor, single point].
In the case of `Cc1ccc(NC(=O)c2cnc3ccccc3n2)cc1C`, the Potency was active: 2.39 µM.
With `CCc1ccc(-c2nc(CSCC(=O)NC3CC3)c(C)o2)cc1` the Potency was active: 19 µM.
With `COc1ccc(NC(=O)CN2C(=O)COc3ccc(S(=O)(=O)Nc4ccccc4)cc32)cc1OC` the “activity change, negative = inhibition” value was inactive: -8.36%.
For `COc1ccc(-c2nn(-c3ccccc3)cc2CO)cc1OC`, the Potency was inconclusive: 19 µM [inhibitor, partial curve].
In the case of `O=C(c1cc(-c2ccc3c(c2)OCO3)on1)N1CCN(c2ccc(F)cc2)CC1`, the Potency was active: 15.1 µM.
`O=C(COCc1cc(-c2cccs2)on1)Nc1cccc(Cl)c1Cl` was tested, and the “activity change, negative = inhibition” value was inactive: -0.432%.
In the case of `CCOC(=O)Nc1ccc2c(CN3CCN(S(=O)(=O)c4ccc(C(C)C)cc4)CC3)cc(=O)oc2c1`, the “activity change, negative = inhibition” value was inactive: 4.22%.
With `CSCC[C@H](NC(=O)c1nn(C)c(=O)c2ccccc12)c1nc2ccccc2[nH]1` the Potency was inconclusive: 16.9 µM [inhibitor, partial curve].
For `Cc1cccc(N(Cc2cc3ccc(C)cc3[nH]c2=O)C(=O)c2ccco2)c1`, the Potency was inconclusive: 42.6 µM [inhibitor, partial curve, poor fit].
With `Cc1sc2nc(CSC(C)C(=O)Nc3ccccn3)[nH]c(=O)c2c1C` (stereo not drawn) the Potency was inconclusive: 26.9 µM [inhibitor, partial curve, poor fit].
With `CCCCN(C(=O)CSc1nnnn1C)c1c(N)n(Cc2ccccc2)c(=O)[nH]c1=O` the “activity change, negative = inhibition” value was inactive: 5.35%.
In the case of `COc1ccccc1Cn1c(CNS(=O)(=O)c2ccccc2Cl)nc2cccnc21`, the “activity change, negative = inhibition” value was inactive: 2.46%.
`CC(=O)c1cccc(NC(=O)c2cccn2-c2nnc(N3CCCCC3)s2)c1` was tested, and the Potency was inconclusive: 37.9 µM [inhibitor, partial curve, poor fit].
For `CCCNC(=O)c1ccc(CN2CCOCC2)cc1`, the “activity change, negative = inhibition” value was inactive: -7.23%.
`N/C(=N\OC(=O)c1ccc(Cl)cc1)c1nonc1N` was tested, and the Potency was active: 1.69 µM.
In the case of `Cc1sc(NC(=O)C2CCCCC2C(=O)O)c(C(N)=O)c1-c1ccc(C(C)C)cc1` (stereo not drawn), the Potency was inconclusive: 37.9 µM [inhibitor, single point].
With `CCc1ccccc1NC(=O)CSc1ncc(S(=O)(=O)c2ccccc2)c(N)n1` the “activity change, negative = inhibition” value was inactive: -16.6%.
With `COc1ccc(CCNC(=O)c2cc(Nc3cc(C)cc(C)c3)nc3ccccc23)cc1OC` the Potency was active: 6.01 µM.
In the case of `COc1ccccc1/C=C1/C(=O)N(c2ccc([N+](=O)[O-])cc2)N=C1C`, the Potency was inconclusive: 21.3 µM [inhibitor, partial curve, poor fit].
`COc1ccc(/C=C(\C#N)c2cc(OC)c(OC)cc2[N+](=O)[O-])cc1` was tested, and the Potency was active: 9.53 µM.
In the case of `N#CCCCSc1ncccc1-c1nc2ccccc2[nH]1`, the Potency was inconclusive: 26.9 µM [inhibitor, single point].
With `Cc1oc(-c2ccc(Cl)cc2)nc1Cn1c(=O)cc(C)c2c(C)nn(-c3cccc(F)c3)c21` the “activity change, negative = inhibition” value was inactive: -1.07%.
In the case of `CCn1ncc(C2=NOC(C(=O)Nc3cnn(C45CC6CC(CC(C6)C4)C5)c3)C2)c1C` (stereo not drawn), the Potency was inconclusive: 21.3 µM [inhibitor, partial curve].
For `Cc1ccc(C(=O)Nc2ccc(C(=O)OCc3cc(=O)n4nc(C5CC5)sc4n3)cc2)cc1`, the Potency was inconclusive: 6.01 µM [inhibitor, partial curve, poor fit].
In the case of `COc1ccc(S(=O)(=O)N2CCCCCC2)cc1C(=O)NCCOc1ccc(C)cc1`, the “activity change, negative = inhibition” value was inactive: 3.66%.
In the case of `COc1cc2c(cc1OC)CN(c1ccc3ccccc3n1)CC2`, the Potency was inconclusive: 26.9 µM [inhibitor, single point].
For `Cc1ccc(N/N=C(\C#N)C(=O)c2ccsc2)cc1`, the Potency was inconclusive: 21.3 µM [inhibitor, single point].
`CCN(CC)c1ccc(C(=O)N2CCN(Cc3ccccc3)CC2)cc1` was tested, and the Potency was inconclusive: 33.8 µM [inhibitor, partial curve, poor fit].
For `Cc1ccc2c(c1)sc1nc(-c3cc4ccccc4oc3=O)cn12`, the Potency was active: 0.426 µM.
In the case of `CCc1nc(SCc2ccc(Cl)cc2)n[nH]1`, the Potency was inconclusive: 30.1 µM [inhibitor, single point].
With `Cc1nc(Br)c(Br)c(C)c1Br` the “activity change, negative = inhibition” value was inactive: -4.79%.
In the case of `CC1(C)COC(/C=C/c2ccc([N+](=O)[O-])cc2)=N1`, the Potency was inconclusive: 19 µM [inhibitor, partial curve].
`COc1c(C)cc(C(=O)C2CCCN(Cc3cnc(N4CCOCC4)s3)C2)cc1C` (stereo not drawn) was tested, and the “activity change, negative = inhibition” value was inactive: -2.24%.
For `Cc1ccc(C(=O)NNC(=O)c2cccs2)cc1`, the Potency was inconclusive: 26.9 µM [inhibitor, single point].
For `Cc1c(NC(=O)CSc2nnc(Nc3ccccc3)s2)c(=O)n(-c2ccccc2)n1C`, the Potency was inconclusive: 26.9 µM [inhibitor, partial curve, poor fit].
For `Cn1cccc1/C=N\NC(=O)C1COc2ccc(C(C)(C)C)cc2O1` (stereo not drawn), the Potency was inconclusive: 19 µM [inhibitor, partial curve].
In the case of `COCC(C)n1c(C)cc(C(=O)COC(=O)c2c(C)nn(-c3ccccc3)c2C)c1C` (stereo not drawn), the Potency was inconclusive: 30.1 µM [inhibitor, single point].
For `CC(C)Cc1cc(C(=O)Nc2sc3c(c2C#N)CCCC3)no1`, the Potency was inconclusive: 23.9 µM [inhibitor, partial curve, poor fit].
`CC(C)[C@H](NC(=O)c1ccco1)C(=O)OCc1cc(=O)n2c(n1)sc1ccccc12` was tested, and the Potency was inconclusive: 37.9 µM [inhibitor, partial curve, poor fit].
With `C/C(=N\Nc1nccnc1Cl)c1ccc(Br)cc1` the Potency was inconclusive: 21.3 µM [inhibitor, single point].
With `CS(=O)(=O)c1ccc2nc(NC(=O)Nc3cccc(Cl)c3)sc2c1` the Potency was inconclusive: 1.9 µM [inhibitor, full curve].
`CN(C(=O)COC(=O)c1cc(S(=O)(=O)N2CCOCC2)ccc1F)C1CCS(=O)(=O)C1` (stereo not drawn) was tested, and the “activity change, negative = inhibition” value was inactive: -2.53%.
In the case of `CN(C)c1ccc(CNS(=O)(=O)c2ccc3c(c2)NC(=O)CS3)cc1`, the “activity change, negative = inhibition” value was inactive: -0.758%.
In the case of `COc1ccccc1CNC(=O)C1CCCN(c2nn3cc(-c4ccc(F)cc4)nc3s2)C1` (stereo not drawn), the Potency was inconclusive: 7.57 µM [inhibitor, full curve].
In the case of `COc1c(C)cc(C(=O)C2CCCN(Cc3ccc(Oc4ncccn4)cc3)C2)cc1C` (stereo not drawn), the “activity change, negative = inhibition” value was inactive: -4.97%.
In the case of `O=C(c1cnc2cc(-c3ccccc3)nn2c1)c1cc([N+](=O)[O-])ccc1O`, the Potency was inconclusive: 13.5 µM [inhibitor, partial curve].
`Cc1ccccc1Cn1nc(C)c(NC(=O)c2cc(-c3ccc(F)cc3)on2)c1C` was tested, and the “activity change, negative = inhibition” value was inactive: 3.35%.
`O=C(/C=C/c1ccc(Cl)cc1)N1CCN(c2ccc([N+](=O)[O-])c(N3CCOCC3)c2)CC1` was tested, and the Potency was inconclusive: 7.57 µM [inhibitor, partial curve].
In the case of `C=CCn1c(COc2ccc(F)cc2)nnc1SCC(=O)Nc1cccc(S(N)(=O)=O)c1`, the Potency was inconclusive: 26.9 µM [inhibitor, partial curve, poor fit].
For `CCc1ccc(NC(=O)c2cc(-c3cccs3)on2)cc1`, the Potency was inconclusive: 1.51 µM [inhibitor, partial curve, poor fit] and inconclusive: 1.2 µM [inhibitor, partial curve, poor fit].
With `C=CCn1nc2ccccc2c1OCCO` the Potency was inconclusive: 37.9 µM [inhibitor, partial curve, poor fit].
For `Cc1ccc(CCNC(=O)c2cc(-c3ccncc3)nc3ccccc23)cc1`, the Potency was inconclusive: 42.6 µM [inhibitor, partial curve, poor fit].
For `FC(F)(F)c1cccc(OCc2noc(-c3ccsc3)n2)c1`, the Potency was inconclusive: 23.9 µM [inhibitor, single point].
`O=C(NCCc1ccccc1)c1ccccc1NC(=O)C1CC=CCC1C(=O)O` (stereo not drawn) was tested, and the Potency was inconclusive: 23.9 µM [inhibitor, single point].
`O=C(NCc1ccco1)Nc1ccc(Br)cc1` was tested, and the Potency was inconclusive: 37.9 µM [inhibitor, single point].
With `Cc1ccc(CNC(=O)CN(c2ccc(C(C)C)cc2)S(=O)(=O)c2c(C)n[nH]c2C)cc1` the Potency was inconclusive: 10.7 µM [inhibitor, partial curve, poor fit].
In the case of `COc1ccc(Cn2ccnc2SCC(=O)Nc2ccc(C)cc2C)cc1`, the “activity change, negative = inhibition” value was inactive: -13%.
`CC(C)(C)CC(=O)Nc1nnc2n1CCS2` was tested, and the “activity change, negative = inhibition” value was inactive: 0.383%.
With `CCOc1ccc(OC(=O)c2cccnc2)cc1` the Potency was inconclusive: 26.9 µM [inhibitor, partial curve, poor fit].
With `CCSc1nnc(NC(=O)c2ccc(S(=O)(=O)N(C)C)cc2)s1` the Potency was inconclusive: 10.7 µM [inhibitor, partial curve, poor fit].
In the case of `O=C(OCC#CCSc1nnc(-c2ccccc2)o1)c1cccs1`, the Potency was inconclusive: 23.9 µM [inhibitor, single point].
`CC(=O)NC(Cc1c[nH]c2ccccc12)C(=O)Nc1ccc2c(c1)OCO2` (stereo not drawn) was tested, and the Potency was inconclusive: 26.9 µM [inhibitor, partial curve, poor fit].

— PubChem BioAssay AID588342 (National Center for Advancing Translational Sciences (NCATS), 2011)
Note: nearly all actives have a fitted effect of over 55% in size.
Potency is the fitted concentration of half-maximal effect; tags give direction and shape of the fitted curve.
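Throughout, for activity change, negative = inhibition: plate controls were vehicle for no effect and reference inhibitor for full effect.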
